# This is one part of the list.
# B1: PhoQ; a variant is named by its letters at X, in order, P23837 (parent)
# chain: MKKLLRLFFPLSLRVRFLLATAAVVLVLSLAYGMVALIGYSVSFDKTTFRLLRGESNLFYTLAKWENNKLHVELPENIDKQSPTMTLIYDENGQLLWAQRDVPWLMKMIQPDWLKSNGFHEIEADVNDTSLLLSGDHSIQQQLQEVREDDDDAEMTHSVAVNVYPATSRMPKLTIVVVDTIPVELKSSYMVWSWFIYVLSANLLLVIPLLWVAAWWSLRPIEALAKEVRELEEHNRELLNPATTRELTSLVRNLNRLLKSERERYDKYRTTLTDLTHSLKTPLXXLQXXLRSLRSEKMSVSDAEPVMLEQISRISQQIGYYLHRASMRGGTLLSRELHPVAPLLDNLTSALNKVYQRKGVNISLDISPEISFVGEQNDFVEVMGNVLDNACKYCLEFVEISARQTDEHLYIVVEDDGPGIPLSKREVIFDRGQRVDTLRPGQGVGLAVAREITEQYEGKIVAGESMLGGARMEVIFGRQHSAPKDE
# Variants of: B1
# Assay: enrichment ratio after two sorts for PhoP signalling (ratio (wild type AVST 3.29)); higher = more functional
# Conditions: with PhoP (E. coli)
row,Variant,enrichment ratio
1,RIKK,≤ 0.25
2,PEVN,≤ 0.25
3,TWKW,≤ 0.25
4,GDWL,≤ 0.25
5,IMEW,≤ 0.25
6,IVCD,≤ 0.25
7,FQLS,5.31
8,EMPL,≤ 0.25
9,MSQL,≤ 0.25
10,IGCC,≤ 0.25
11,EEVI,≤ 0.25
12,DAKR,≤ 0.25
13,ACRW,≤ 0.25
14,LGGR,≤ 0.25
15,MVWH,1.95
16,CCFL,≤ 0.25
17,GNLA,7.72
18,HWLS,≤ 0.25
19,PKCH,≤ 0.25
20,AWLY,≤ 0.25
21,WFRQ,≤ 0.25
22,SSTT,7.44
23,DHFF,≤ 0.25
24,HTIY,≤ 0.25
25,RFKQ,≤ 0.25
26,YEMR,≤ 0.25

row,Variant,enrichment ratio
1,PRLV,≤ 0.25
2,GQLW,≤ 0.25
3,KHWV,≤ 0.25
4,VCMI,17.6
5,IRMA,≤ 0.25
6,SSMR,≤ 0.25
7,DELP,≤ 0.25
8,GWPC,≤ 0.25
9,SGLT,12.3
10,MWPQ,≤ 0.25
11,LCGH,≤ 0.25
12,IKIA,≤ 0.25
13,KLRS,≤ 0.25
14,RIFD,≤ 0.25
15,WKAP,≤ 0.25
16,TKGC,3.17
17,PWNA,≤ 0.25
18,VVAQ,≤ 0.25
19,DKQY,≤ 0.25
20,MFSP,≤ 0.25
21,GLVF,0.422
22,PHAR,≤ 0.25
23,AHWM,≤ 0.25
24,MCWT,≤ 0.25
25,ANFR,≤ 0.25
26,IMPL,≤ 0.25

row,Variant,enrichment ratio
1,SNSP,≤ 0.25
2,VSAG,≤ 0.25
3,DFQQ,≤ 0.25
4,IQLM,3.4
5,ADWD,≤ 0.25
6,MMGP,≤ 0.25
7,RRYI,≤ 0.25
8,YPPQ,≤ 0.25
9,QMCR,≤ 0.25
10,GLRV,≤ 0.25
11,FFWE,≤ 0.25
12,YQFT,≤ 0.25
13,EFKF,≤ 0.25
14,IVND,≤ 0.25
15,PRWN,≤ 0.25
16,NNTL,6.4
17,VIPH,≤ 0.25
18,SRVH,≤ 0.25
19,LIMP,≤ 0.25
20,TFLT,0.554
21,FEVD,≤ 0.25
22,ICNE,≤ 0.25
23,LSFY,3.36
24,RCGW,≤ 0.25
25,RHGY,≤ 0.25
26,TDSC,8.66

row,Variant,enrichment ratio
1,GVAC,≤ 0.25
2,GEPS,≤ 0.25
3,MPNQ,≤ 0.25
4,HKDR,≤ 0.25
5,QSLW,0.845
6,QNET,≤ 0.25
7,HSGP,≤ 0.25
8,PMNQ,≤ 0.25
9,SIWE,3.02
10,FTTM,4.35
11,LEHD,≤ 0.25
12,TIWC,≤ 0.25
13,DLTE,≤ 0.25
14,PQFS,≤ 0.25
15,SHIA,≤ 0.25
16,NIGC,≤ 0.25
17,VKAN,≤ 0.25
18,EFWD,≤ 0.25
19,LCMY,≤ 0.25
20,WSCV,0.762
21,IRFV,≤ 0.25
22,SFYE,≤ 0.25
23,YSKW,≤ 0.25
24,QKVN,≤ 0.25
25,FRAP,0.359
26,VSAI,3.61

row,Variant,enrichment ratio
1,YPTH,≤ 0.25
2,YHHF,≤ 0.25
3,LFFK,≤ 0.25
4,YKCS,≤ 0.25
5,HNTH,≤ 0.25
6,YHIQ,≤ 0.25
7,LKNC,≤ 0.25
8,IQMA,≤ 0.25
9,HYYN,≤ 0.25
10,PGVI,≤ 0.25
11,TWPE,≤ 0.25
12,NVSP,≤ 0.25
13,PMDY,≤ 0.25
14,SLCH,11.6
15,MLAK,≤ 0.25
16,PTFW,≤ 0.25
17,IYRR,≤ 0.25
18,PSCQ,≤ 0.25
19,TERD,≤ 0.25
20,YCVN,0.404
21,AACW,≤ 0.25
22,MEYC,≤ 0.25
23,FTDW,≤ 0.25
24,ESWI,≤ 0.25
25,GQRP,≤ 0.25
26,WGYA,≤ 0.25

row,Variant,enrichment ratio
1,DYLE,≤ 0.25
2,LKNQ,≤ 0.25
3,LCYN,≤ 0.25
4,VIVH,≤ 0.25
5,QFYK,≤ 0.25
6,DSCT,≤ 0.25
7,IMIL,≤ 0.25
8,PKFS,≤ 0.25
9,YLFG,≤ 0.25
10,RARL,≤ 0.25
11,LQAM,≤ 0.25
12,HKYY,≤ 0.25
13,SGEN,≤ 0.25
14,WPHE,≤ 0.25
15,IIGW,≤ 0.25
16,HKKY,≤ 0.25
17,IKSR,≤ 0.25
18,IWTT,≤ 0.25
19,TTNL,9.07
20,DVWQ,≤ 0.25
21,GMDH,≤ 0.25
22,FAYE,≤ 0.25
23,LTYY,≤ 0.25

# Reference: a collection of fitness landscapes (doi:10.1126/science.1257360)
